Results on 22 molecules are retold here after article PMC12136788.

This is one part of the list.

B1: chr20:1375301:1375603:-|CDS|ENSG00000088832|control|control|control (ssRNA)
RNA: GGGAGUUCUACAGUCCGACGAUCGGUAUGCUCUCUCAUUUGUUUUGUUUUGCUUUCUAGUAUUUACCUUUUAUAUUUUUUUAUAGGUGGCAUAUUUAUACGGUUCAAAAAUAAAAAAAGUGAAAAGUCUCACCCUCAUGCCAUCAACAGAGGAUUGAGCAUCA
B2: chr11:112070992:112071283:-|CDS|ENSG00000150773|control|control|control (ssRNA)
RNA: GGGAGUUCUACAGUCCGACGAUCAAUAAAAGGAAGCAUUCAAAGAAUGAAACAAAAUCUGAUGGGAAUCCAAACUGAUUCCAUAGAUUUAAGAGAAAAAAUGAGAAGGGGUAAGUUGAUGAUUGUAAAUGGAAAAUUAAACUGCAACAGAGGAUUGAGCAUCA
B3: chr1:51356092:51356193:-|3pUTR|ENSG00000085832|unk|total|mutant (ssRNA)
RNA: GGGAGUUCUACAGUCCGACGAUCUUCAGAGAUAAGGAAAAAUAUUUUGCACAGAUUUACUCCACUAUGGAAAAGGGAUGCUGCCGGUUGAACCAUUACCGCCUCAGAUUCGAUCUUUUCCUAACUAAAAAUAUUAAAGCCUCACAACAGAGGAUUGAGCAUCA
B4: chr11:35229396:35229958:+|3pUTR|ENSG00000026508|msi1|FALSE|unique (ssRNA)
RNA: GGGAGUUCUACAGUCCGACGAUCAUAUGUAUUCCUGAUCGCCAACCUUUCCCCCACCAGCUAAGGACAUUUCCCAGGGUUAAUAGGGCCUGGUCCCUGGGAGGAAAUUUGAAUGGGUCCAUUUUGCCCUUCCAUAGCCUAAUCCAACAGAGGAUUGAGCAUCA
B5: chr3:81489889:81489990:-|3pUTR|ENSG00000114480|msi1|FALSE|unique (ssRNA)
RNA: GGGAGUUCUACAGUCCGACGAUCUUGGUCUAAAUUAUGAGGUACCAAGAUUGUUUCUUUGUUUCUUUUUUUCAAAUUGUGUUUAGAAAUACUGUAAUAAAUAUGCAGUAGUGAUAUAAAGAAUUAUAUCCAAGGUAAUAUAAACAACAGAGGAUUGAGCAUCA
B6: chr8:6757792:6757893:+|3pUTR|ENSG00000155189|msi1|FALSE|unique (ssRNA)
RNA: GGGAGUUCUACAGUCCGACGAUCAUUUAUUACAACUUGACAGCUCCAAGCUCUUAUUACUAAAGUAUUUAGUAUCUUGCAGCUAGUUAAUAUUUCAUCUUUUGCUUAUUUCUACAAGUCAGUGAAAUAAAUUGUAUUUAGGAACAACAGAGGAUUGAGCAUCA
B7: chrX:51895182:51895295:+|CDS|ENSG00000179222|unk|FALSE|unique (ssRNA)
RNA: GGGAGUUCUACAGUCCGACGAUCAGUUCACAGCCCCCAACUGCCAAUGAGAUGGCUGACAUUCAGGUUUCAGCAGCUGCCGCUAGGCCUAAGUCAGCCUUUAAAGUCCAGAAUGCCACCACAAAAGGCCCAAAUGGUGUCUAUCAACAGAGGAUUGAGCAUCA
B8: chr1:67411267:67411372:-|3pUTR|ENSG00000142864|unk|total|mutant (ssRNA)
RNA: GGGAGUUCUACAGUCCGACGAUCAACUCAUUUCCAAACAUGUACCAUGUUUUAUAAACCUCUUGAUUUCCAGCAACAUACUACCGAAAACACCUGCUACUCAAAACACAACUUCUCAGUGUCAUCCAUUGCUGUCGUGAGAGACAACAGAGGAUUGAGCAUCA
B9: ENSG00000166181:stop:overlap|stop_codon|ENSG00000166181|stop_codon|NA|stop_codon (ssRNA)
RNA: GGGAGUUCUACAGUCCGACGAUCGUGGGAAAUAUAGCAGCAAUUUGGGCAACUUUAAUUAUGAGAGGAGCCUUCAGGGGAAGUAGAGGUGGCCGAGGUUGGGGCACACGAGGAAAUCGUAGUCGGGGAAGACUCUACUGAAUACAACAGAGGAUUGAGCAUCA
B10: chr7:17792983:17793084:-|3pUTR|ENSG00000071189|msi1|FALSE|unique (ssRNA)
RNA: GGGAGUUCUACAGUCCGACGAUCGACAUGCCUUAGGUAACUGCAGAAAUAGCAAAUUAAAUGAUUAAUGAGCUUAUUAGUCAUAGUAAACAUACAGAUUCCUAAUUCUAUGACAGUGUACAUAUAUGAAAAUAAAUGAUGAAACAACAGAGGAUUGAGCAUCA
B11: chr14:39032579:39032680:-|3pUTR|ENSG00000100934|msi1|total|mutant (ssRNA)
RNA: GGGAGUUCUACAGUCCGACGAUCUGAUUUUAUAAUGGUAAUUUUCAUGAUGAUAAUGUUUUUGGUUAUUUGGAAAGACCGUUCCGAGAUGAAAGGUUUUUUUGGGUAACAAUCCCGCAGCUGACAAAAAAUGUGAAAUUUCCACAACAGAGGAUUGAGCAUCA
B12: chr1:2308404:2308505:+|3pUTR|ENSG00000157933|unk|FALSE|unique (ssRNA)
RNA: GGGAGUUCUACAGUCCGACGAUCUUCUUUGCUUUUGUUUUCUUUGCGGUUGUUCUGUGUGCAUGGAUUCCACACCUCUGCCGUAGGUAGAUCCGUCAGCGGGCAUUAUUACCGUGUCUUGUAAAGGGUCGGUUUUGUUAUGCACAACAGAGGAUUGAGCAUCA
B13: chr22:46679111:46679212:+|3pUTR|ENSG00000075240|msi1|FALSE|unique (ssRNA)
RNA: GGGAGUUCUACAGUCCGACGAUCAGGGCCCGGCAGUGCCCAAGGAUGGGUCCGGGGCCUCGGGGCCAAUGAGCGCCUCUUCCUAGGUGCUGGGAUUCAGUCCCCAAACACAGCGGGAGGGGUCCCUGGGGCAGAUGGGGCUUUCAACAGAGGAUUGAGCAUCA
B14: chr5:147393764:147393895:-|3pUTR|ENSG00000113657|msi1_unk|total|mutant (ssRNA)
RNA: GGGAGUUCUACAGUCCGACGAUCUCCAAUGUUACGCUCGCUUGCCCCGCUUUACGAAUAUUGCUUUGUUUUCUGUUUAUGCACCGCCUUGAUUUGUUUGACUCCCCUCCCCCCAUUUACAUGCAUGCAAUCAGACAGGCCACUCAACAGAGGAUUGAGCAUCA
B15: chr10:25598329:25598431:+|CDS|ENSG00000151025|unk|FALSE|unique (ssRNA)
RNA: GGGAGUUCUACAGUCCGACGAUCAUCGAUGUUACAGAAGUCUCUCAGUGUCAUAGCAAGCGCCAAGGAGAAGACUCUUGGAUUAGCUGGGAAAACCCAAACAGCAGGUGUGGAAGAACGCACUAAAUCCCAGAAACCUUUGCCCAACAGAGGAUUGAGCAUCA
B16: chr16:5044585:5044836:-|CDS|ENSG00000153446|control|control|control (ssRNA)
RNA: GGGAGUUCUACAGUCCGACGAUCGAGUAGCUGGGACUACAGGAGCGUGCCACCAUACCUGGCUAAUUUUUAUAUUUUUUUAGUAGAGACAGGGUUUCAUCAUGUUGCUCAUGCUGGUCUCGAACUCCUGAUCUCAAGAGAUCCCAACAGAGGAUUGAGCAUCA
B17: chr9:37441208:37441377:-|CDS|ENSG00000168795|unk|total|mutant (ssRNA)
RNA: GGGAGUUCUACAGUCCGACGAUCAGGGCCGGUGAUAUCCAUAUUUUGGAAGUCACAAAUAACCCCGAGCAUAAGUCCACUUUCCGUAUUUCGAAUUUUCUUAACAAGAGCAGAGGAAAUAACUUUACUGCAAAUCAGAACAAUCAACAGAGGAUUGAGCAUCA
B18: chr19:13097725:13097826:+|3pUTR|ENSG00000008441|msi1|FALSE|unique (ssRNA)
RNA: GGGAGUUCUACAGUCCGACGAUCUGAGCCAGACGCCAACUUGACCCUCACCAGCAUUAUCAGGAGCGCGCUCAGCAAGUUGGUAGUUUCCUCCCCCCUUUCCCGGCGCCCCUCCCGCCCCCAUUCAACAUCUCUCAUCCUAUCCAACAGAGGAUUGAGCAUCA
B19: chr1:155263244:155263345:-|CDS|ENSG00000176444|unk|total|mutant (ssRNA)
RNA: GGGAGUUCUACAGUCCGACGAUCGUAUCUGACCUCAGAGGCAGAGGAACACCACCAGCUCUUCGAUCUGAUUGAAAGCAUGCCCGAGUAUGAACCAGCUAAGCGGCUGACCUUGGGUGAAGCCCUUCAGCAUCCUUUCUUCGCCAACAGAGGAUUGAGCAUCA
B20: chr22:49888080:49888186:+|3pUTR|ENSG00000100426|unk|total|mutant (ssRNA)
RNA: GGGAGUUCUACAGUCCGACGAUCUGGCUUAUUAACAGGGAAGAAGCUUGUUAUAUUCCAGUUGUAAGAACCGCCUCCGUGUUCCGAUUUUUUUAUGACCGGGAAGAUGCGGCCAUCACUGGGAUAUUUUCAAAUCCCAAGGACCAACAGAGGAUUGAGCAUCA
B21: chr7:139284418:139284519:+|CDS|ENSG00000157741|unk|total|mutant (ssRNA)
RNA: GGGAGUUCUACAGUCCGACGAUCGCAAUGAAUGUACCUGCCAGCAGAGGCCGCAACCUUAACUCAAGCGGAGCUAACCGGACCCGUCUGUCUGGGGGAACAGGAAGUGGAACACAGGGUGCUACCAAACCAUUGUCUACUCCACAACAGAGGAUUGAGCAUCA
B22: chr8:94249252:94250309:-|three_prime_utr|ENSG00000164949|control|control|control (ssRNA)
RNA: GGGAGUUCUACAGUCCGACGAUCUCACCCAGAUGUCCCUUUGAUGGCCGUUGUUGAAGGCCAUUGGGACCAAUAAUCUAUAUUAGAUUGAAUACUUAAGUUAGAUGUGGUUUCCCCCAUUGUAGCAGGGAGCUAGCGUAUUAGCAACAGAGGAUUGAGCAUCA

This assay has as its target MSI1 full-length (mouse, UniProt Q61474 1-362). The experiment in a line: nsRBNS (natural sequence RNA bind-n-seq); RBNS binding buffer (assumed for nsRBNS): 25 mM Tris pH 7.5, 150 mM KCl, 3 mM MgCl2, 0.01% Triton X-100, 500 ug/ml BSA, 20 U/ml SUPERase-In, 4 C; UNK is unkempt and MSI1 is Musashi-1; names of the RNAs are library labels; protein concentration not given here; high values mean tight binding.
UniProt Q61474, sequence (Q61474 whole entry): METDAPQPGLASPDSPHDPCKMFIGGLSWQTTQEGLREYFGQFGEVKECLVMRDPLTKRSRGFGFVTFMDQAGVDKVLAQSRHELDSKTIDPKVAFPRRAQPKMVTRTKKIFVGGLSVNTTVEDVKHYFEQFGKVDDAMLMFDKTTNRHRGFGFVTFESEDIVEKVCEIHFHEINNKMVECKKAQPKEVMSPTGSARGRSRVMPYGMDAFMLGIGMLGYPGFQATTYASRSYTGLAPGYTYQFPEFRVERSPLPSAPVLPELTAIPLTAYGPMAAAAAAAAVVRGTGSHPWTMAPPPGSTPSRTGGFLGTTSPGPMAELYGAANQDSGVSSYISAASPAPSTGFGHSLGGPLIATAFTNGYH
On to B1, for which the binding signal stood at 2.12 enrichment R.
The result for B2 reads 0.603 enrichment R; that for B3, 0.332 enrichment R; that for B4, 0.686 enrichment R.
In turn, B5 had a binding signal of 2.36 enrichment R.
The result for B6 reads 1.46 enrichment R.
B7 yielded a binding signal of 0.449 enrichment R.
As for B8, the figure is 0.416 enrichment R.
As for B9, the figure is 1.94 enrichment R; as for B10, 2.96 enrichment R.
The result for B11 reads 0.316 enrichment R.
Molecule B12 yielded a binding signal of 0.32 enrichment R.
Molecule B13 showed a binding signal of 0.374 enrichment R.
The result for B14 reads 0.792 enrichment R; that for B15, 0.57 enrichment R.
As for B16, the figure is 4.11 enrichment R; as for B17, 0.204 enrichment R.
The result for B18 reads 0.833 enrichment R; that for B19, 0.324 enrichment R; that for B20, 0.28 enrichment R.
B21: the binding signal stood at 0.436 enrichment R.
For B22, the binding signal came out at 11.6 enrichment R.
